Screen size: about 310,000 compounds; about 2,200 (0.71%) showed an effect of 50% or more. The effect is printed as a negative number. Some of the results follow.
target: human ether-à-go-go-related gene (hERG) potassium channel (human, UniProt Q12809); assay: primary screen, population patch clamp on CHO cells stably expressing hERG
Sequence (Q12809 whole entry, looked up): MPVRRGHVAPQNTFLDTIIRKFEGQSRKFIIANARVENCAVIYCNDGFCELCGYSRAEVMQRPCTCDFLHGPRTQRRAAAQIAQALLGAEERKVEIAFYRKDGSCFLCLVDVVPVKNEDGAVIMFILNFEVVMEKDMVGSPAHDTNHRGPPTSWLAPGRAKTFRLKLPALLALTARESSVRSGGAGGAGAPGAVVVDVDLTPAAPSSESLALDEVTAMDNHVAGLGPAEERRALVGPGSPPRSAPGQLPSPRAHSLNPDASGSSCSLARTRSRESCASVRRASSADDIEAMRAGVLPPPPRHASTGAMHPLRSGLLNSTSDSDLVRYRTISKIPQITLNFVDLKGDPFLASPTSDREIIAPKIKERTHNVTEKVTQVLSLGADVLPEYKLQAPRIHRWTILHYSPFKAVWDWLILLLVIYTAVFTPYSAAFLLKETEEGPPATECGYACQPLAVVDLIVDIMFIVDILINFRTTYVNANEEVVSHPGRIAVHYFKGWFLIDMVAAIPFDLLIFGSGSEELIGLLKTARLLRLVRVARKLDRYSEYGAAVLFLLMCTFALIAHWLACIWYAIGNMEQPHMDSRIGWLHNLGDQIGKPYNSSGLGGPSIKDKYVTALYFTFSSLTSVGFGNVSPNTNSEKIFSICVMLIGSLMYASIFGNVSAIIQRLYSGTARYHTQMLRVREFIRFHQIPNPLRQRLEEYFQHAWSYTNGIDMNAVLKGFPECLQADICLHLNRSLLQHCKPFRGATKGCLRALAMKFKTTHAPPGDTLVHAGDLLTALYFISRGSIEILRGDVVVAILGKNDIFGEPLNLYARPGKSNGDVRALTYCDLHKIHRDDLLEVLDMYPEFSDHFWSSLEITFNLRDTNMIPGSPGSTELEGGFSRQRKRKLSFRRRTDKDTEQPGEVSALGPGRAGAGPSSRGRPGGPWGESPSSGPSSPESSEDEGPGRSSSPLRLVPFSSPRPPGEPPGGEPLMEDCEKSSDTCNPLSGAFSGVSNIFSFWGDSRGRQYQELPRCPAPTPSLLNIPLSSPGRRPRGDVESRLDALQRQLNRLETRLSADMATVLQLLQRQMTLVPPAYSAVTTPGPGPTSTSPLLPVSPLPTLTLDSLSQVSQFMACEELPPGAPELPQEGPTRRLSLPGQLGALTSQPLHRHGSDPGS

SMILES | hERG current change (%, negative = inhibition) at 1uM [%]
COc1cccc(-c2nnc(SCC(=O)N3CCCC3=O)n2-c2ccccc2)c1 | 5.18
N#C/C(=C\c1ccc2c(c1)OCCO2)C(=O)Nc1ccc(C(=O)O)cc1 | 13.9
CC(Sc1ccsc1[N+](=O)[O-])C(=O)NCc1ccco1 (centres unmarked) | 14.9
CN1CCN(c2ccc(S(=O)(=O)N3CCCCC3)cc2NC(=O)Cc2c(F)cccc2Cl)CC1 | -7.39
Cc1cccc(OCCNC(=O)c2cc(-n3cnnc3)ccc2Cl)c1 | 8.11
CSc1ccccc1C(=O)N1CCCC(CNC(=O)c2ccc(F)cc2)C1 (centres unmarked) | 17.1
O=C1c2ccccc2C(=O)c2c1ccc1c(=O)n(-c3ccccc3)[nH]c21 | 1.19
Cc1ccc(/C=C/C(=O)Nc2ccncc2)o1 | 0.494
COc1ccc(C2CC(c3ccccc3)=NN2c2ccc(N)cc2)cc1 (centres unmarked) | 12.3
C/C(=N\N=c1/sc2ccccc2n1C)c1ccc(N2CCOCC2)cc1 | 13.2
Cc1ccc2c(c1)N(Cc1ccc3c(c1)OCO3)C(=O)C(C)O2 (centres unmarked) | 0.202
COC(=O)C(C)Sc1ncnc2c1nnn2-c1ccc(F)cc1 (centres unmarked) | 5.47
CCc1ccc(S(=O)(=O)Nc2cccc(-c3ccc4nnc(C)n4n3)c2)s1 | -8.53
O=C(NCCO)C1COc2ccccc2O1 (centres unmarked) | 12.5
O=C(Nc1ccc(C(=O)N2CCCC2)cc1)c1ccccc1[N+](=O)[O-] | 14.3
N#Cc1sc(NCc2ccccn2)nc1Cl | 16.5
COc1ccccc1OCC#CCSc1ncccn1 | 17.6
Cc1ccc(S(=O)(=O)NCC(c2cccnc2)N(C)C)cc1 (centres unmarked) | 10.4
CCOc1ccc(NC(=O)c2cccnc2C(=O)O)cc1 | 13.3
Cc1ccccc1CSCCC(=O)NCCc1ccccc1 | 15
Cc1ccc(S(=O)(=O)Nc2cccc3ncccc23)s1 | 4.17
COc1cccc(Cn2nnc(C(=O)Nc3cc(C)ccc3OC)c2N)c1 | 8.48
Cc1c(NC(=O)c2ccc([N+](=O)[O-])o2)cccc1-c1nc2ncccc2o1 | 4.28

SMILES | hERG current change (%, negative = inhibition) at 1uM [%]
COc1ccc2oc(C(=O)Nc3ccc(C)cn3)c(C)c2c1 | 7.75
CCOc1ccc(N2C(=O)C3CCCN3C2=S)cc1 (centres unmarked) | 8.82
O=C(CN1C(=O)NC2(CCCCC2)C1=O)Nc1ccccc1N1CCCC1 | 18.2
CC(C)(C)C1c2[nH]c3ccccc3c2CCN1Cc1cccc(OCCO)c1 (centres unmarked) | 5.64
CC(C)(C)C(=O)/C=c1\[nH]c(=O)/c(=C\c2ccccc2F)s1 | 9.02
COc1cccc(/C=C/C(=O)OCC(=O)NCc2ccco2)c1 | -1.73
O=C(NCCc1ccccc1F)C1CCC(=O)N(CCCN2CCCC2=O)C1 (centres unmarked) | -2.84
COc1cc(CN2CCNC(=O)C2CC(=O)N2CCCO2)cc(OC)c1 (centres unmarked) | 17.6
O=C(Nc1nnc(-c2ccc(Br)cc2)o1)c1ccco1 | 13.8
COc1ccc(NC(=O)CCC2CCCCC2)cc1S(=O)(=O)N1CCCCC1 | 10.4
O=C(O)c1ccccc1C(=O)NNc1ccc(F)cc1 | 13.6
CCOc1ccc(NC(=S)N(CCc2c(C)[nH]c3ccc(C)cc23)Cc2ccncc2)cc1 | 6.5
O=C(N/N=C/c1c[nH]c2ccc(Br)cc12)c1ccn(Cc2ccc(Cl)cc2)n1 | 13.9
NS(=O)(=O)c1ccc2nc(NC(=O)CS(=O)(=O)c3ccccc3)sc2c1 | 15.7
COc1ccc(N2CC(C(=O)Nc3c4c(nn3-c3ccc(OC)cc3)CS(=O)(=O)C4)CC2=O)cc1 (centres unmarked) | 16.5
Cc1ccc(NC(=O)CSc2nnc(CNC(=O)c3ccccc3F)o2)cc1Cl | 15.4
COc1cccc(NC(=O)COC(=O)c2c(F)cccc2F)c1 | 2.58
COc1ccc(NS(=O)(=O)c2ccc(N3CCOCC3)c(NC(=O)c3ccc(F)cc3)c2)cc1 | 3.64
O=C(O)CC/C(=N\NC(=O)c1ccc(F)cc1)c1ccc(Br)cc1 | 8.76
Cc1cc(N=NC(=O)c2ccccc2O)c2ccccc2c1O | 6.62
O=C1CN(C(=O)COC(=O)C2CC(=O)N(Cc3ccco3)C2)c2ccccc2N1 (centres unmarked) | -2.61
CC(=O)COc1ccc(-c2csnn2)cc1 | 8.04
CCn1cc(S(=O)(=O)Nc2cc(F)ccc2C)cn1 | 16.5

SMILES | hERG current change (%, negative = inhibition) at 1uM [%]
CC(=O)Nc1ccc(S(=O)(=O)NC2CCS(=O)(=O)C2)cc1Cl (centres unmarked) | 11.1
COc1cc(C(=O)NCC(=O)OCn2nnc3ccccc3c2=O)cc(OC)c1OC | 22.8
CS(=O)(=O)N1CCC(C(=O)Nc2ccc(OCc3ccccc3)cc2)CC1 | 15.1
O=C(CSc1nnc(COc2ccccc2)o1)Nc1nccs1 | 10.5
Cc1ccccc1NC(=S)N(CCN(C)C)C(C)c1ccccn1 (centres unmarked) | 1.34
O=C(NCCc1cccc(C(F)(F)F)c1)C1CCC(=O)N(C2CC2)C1 (centres unmarked) | 3.79
COc1ccc([N+](=O)[O-])cc1NS(=O)(=O)c1cc(C(=O)NCc2cccnc2)ccc1Cl | 2.04
CC(=O)c1ccc(N2CCN(CC(=O)Nc3cc(C)on3)CC2)cc1 | 8.6
CC(=O)N1c2ccc(S(=O)(=O)N3CCC(C(=O)NCc4ccc(Cl)cc4)CC3)cc2CC1C (centres unmarked) | 10.9
O=S(=O)(NCCc1ccccc1)c1ccc(Br)s1 | 6.08
COCCNC(=O)c1cc2c(=O)n(C)c3ccccc3c2n1C | 13
CCCn1c2c(c(O)c(C(=O)Nc3ccc(OCC)cc3)c1=O)CCCC2 | 1.43
CS(=O)(=O)c1ncc(CO)n1Cc1ccccc1 | 9.59
Cc1nnc(SCC(=O)Nc2c(C)n(C)n(-c3ccccc3)c2=O)n1Cc1ccccc1 | 12.1
Cc1nc2ccccc2n1CSc1ccccc1 | -6.18
O=C(N/N=C/C=C/c1ccc2c(c1)OCO2)C(O)c1ccccc1 (centres unmarked) | 5.04
COc1ccc2c(c1)cc(C(=O)N[C@H](C(=O)N1CCC[C@H]1C(=O)O)C(C)C)n2C | 12.9
COc1ccccc1CN(Cc1nc2ccccc2c(=O)[nH]1)S(=O)(=O)c1ccc2ccccc2c1 | 13.7
O=C(/C=C\c1ccccc1)Nc1nccs1 | 10.8
CCSc1nc(-c2cccnc2)ccc1C#N | -1.54
Fc1ccccc1CNC(=S)NC1CCCCC1 | 15.2
Cc1ccccc1-n1c(SCC(=O)Nc2ccccc2)nc2nc3c(cc2c1=O)CCCC3 | 8.27
COc1ccc(-n2c(C)cc(-c3cn4cccc(C)c4n3)c2C)cc1 | -11

SMILES | hERG current change (%, negative = inhibition) at 1uM [%]
Nn1c(C2CCCCC2)nc2ccccc2c1=O | 0.631
Cc1cc(C)cc(NC(=O)N2CCCC2C(=O)NCc2ccco2)c1 (centres unmarked) | 11.6
CCCc1c(C(=O)N/N=C/c2cccc(OCc3ccc(F)cc3)c2)nnn1-c1nonc1N | 12.3
O=C(O)Cc1sc(-c2ccccc2)nc1-c1ccccc1 | 12.5
Cc1ccc(C)c(NC(=O)c2cc(=O)c3ccccc3o2)c1 | 8.95
Cc1c(C(=O)Nc2ccc3c(c2)OCO3)oc2ccccc12 | 7.82
CN(C(=O)CC1C(=O)NCCN1Cc1ccc(F)c(F)c1)C1CCCCC1 (centres unmarked) | 10.3
CCOc1ccc(N2C(=O)C3ON(c4ccccc4)C(c4cccs4)C3C2=O)cc1 (centres unmarked) | 14.5
Cc1cc(-c2nnc(SCC(=O)Nc3ccc(Cl)cn3)n2N)n[nH]1 | 2.87
CCOc1cc2[nH]c(=S)n(CCC(=O)NCc3ccc(OC)cc3)c(=O)c2cc1OCC | 19.3
Cc1ccccc1-n1nc(C)c2cc(C(=O)N3CCOCC3)sc21 | 13.3
CN(C(=O)COC(=O)c1cc([N+](=O)[O-])ccc1Cl)c1ccccc1 | 4.19
CC(C)N1C(=O)CCC1C(=O)NCCc1ccccc1 (centres unmarked) | -4.91
O=C(CCCCO)CCCCCCCC[C@H]1N[C@H](CO)[C@H](O)[C@@H]1O[C@@H]1O[C@H](CO)[C@@H](O)[C@H](O)[C@H]1O | 8.58
CC(=O)Nc1ccc(C(=O)OCC(=O)N(Cc2ccccc2)C(C)(C)C)cc1 | 5.24
Cc1cc(C(F)(F)F)nn1Cc1n[nH]c(=S)n1-c1ccc(F)cc1 | 9.76
N#CCC(=O)Nc1ccc(C(=O)OCC(=O)NC(=O)Cc2ccccc2)cc1 | 13.8
CN(C)S(=O)(=O)c1ccc(C(=O)NCCOc2ccc(F)cc2)cc1 | 0.678
CCCN(C(=O)C1CSC2(C)CCC(=O)N12)c1c(N)n(Cc2ccccc2)c(=O)[nH]c1=O (centres unmarked) | 19.4
Clc1ccc2c(c1)C(c1ccccc1Cl)=NCc1nnc(Br)n1-2.c1ccccc1 | 2.57
